# Test results published in PubChem BioAssay (NCI).
# Several values for one entry are separate records, joined by “and”; a condition that tells them apart may be missing. Equal entries are not always repeated.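 Compound exposure: 48 hours, 5 concentrations, 96-well plates. GI50 = concentration required for 50% inhibition of growth. At the TGI there is no net growth.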
# System: NCI-H322M lung
# Assay: NCI tumour cell line growth inhibition, 48 h
SMILES,TGI,GI50
CCOC(=O)C(NC(=O)CC)(Nc1cc(C)on1)C(F)(F)F (centres undefined),> 100 µM,–
CC1(O)CC(=O)c2c(cc3ccc(-c4c5c(c(O)c6c(O)cccc46)C(=O)CC(C)(O)C5)c(O)c3c2O)C1 (centres undefined),1.21 µM,–
CCCCCC(C)SC1(C(=O)OC)CC(OC(C)=O)C(NC(C)=O)C([C@H](OC(C)=O)[C@@H](COC(C)=O)OC(C)=O)O1 (some centres undefined),> 100 µM,–
CCN(CC)Cc1ccc(Nc2nccc(-c3cnn4ncccc34)n2)cc1,> 6.19 µM,0.0381 µM
COC(=O)c1cc(Cl)ccc1NC(=O)c1ccc([N+](=O)[O-])cc1,72.9 µM,–
O=[N+]([O-])c1cccc([As]=[As]c2cccc([N+](=O)[O-])c2)c1 (centres undefined),0.338 µM,0.186 µM
COC(=O)C1=CC2C(=O)OC1CC2C#N (centres undefined),> 100 µM,–
COc1cc(C2C(Cl)C(=O)N2NC(=O)c2ccc(N)cc2)ccc1O (centres undefined),65 µM,–
Cc1ccc(CNc2c3ccccc3nc3cc(NC(=O)CCN4CCCC4)ccc23)cc1,1.72 µM,0.468 µM
CCc1cccc(C)c1NC(=O)C(=O)Cc1nc2ccccc2s1,> 100 µM,–
O=c1oc2ccccc2cc1-c1cn2cc(Cl)ccc2n1,> 43.4 µM,–
Nc1[nH]nc2nc(-c3cccs3)cc(C(F)(F)F)c12,> 25 µM,> 25 µM
CC(C)(Oc1ccc(Cl)cc1)C(=O)N(C(=O)N1CCC(c2ccccc2)CC1)c1ccccc1,> 100 µM,–
O=C(/C=C/c1ccc([N+](=O)[O-])cc1)c1ccc2c3c(cccc13)CC2,> 100 µM,13.7 µM
O=S1(=O)OCCOS(=O)(=O)C1Cc1ccccc1,> 100 µM,–
COC(=O)CCC(NC(=S)N/N=C/c1ccco1)C(=O)OC (centres undefined),> 100 µM,–
C/C=C(/C)C(=O)O[C@H](C[C@@H](C)[C@H]1CC(c2ccoc2)OC1=O)[C@@]1(C)C(=O)CCC2O[C@]21C (some centres undefined),> 100 µM,–
O=c1nc2oc3ccc4ccccc4c3cc-2s1,> 100 µM,14.7 µM
CSC1=N/C(=C\c2ccco2)C(=O)N1CN1CCOCC1,> 100 µM,–
O=CC1CCCc2ccccc21 (centres undefined),> 100 µM,–
C[CH2][Sn]([CH2]C)([O]C(=O)C(OC(C)=O)c1ccccc1)[O]C(=O)C(OC(C)=O)c1ccccc1 (centres undefined),> 100 µM,92.1 µM
CCN(C(=S)N[C@H](C(=O)N[C@@H](C)C(=O)OC)C(C)C)c1ccccc1,> 100 µM,–
CCCCCCCCCCCCCCCCCCNc1ccn(C2OC(COP(=O)(O)OCC3OC(n4cc(F)c(NCCCCCCCCCCCCCCCCCC)nc4=O)CC3O)C(O)C2O)c(=O)n1 (centres undefined),> 100 µM,–

SMILES,TGI,GI50
Cc1ccc2c(c1C)C(=O)/C(=C/c1ccccc1C(=O)O)C2,> 100 µM,–
C[C@@H]1CC[C@H]2C(C(O)CCCCC(O)C3=C(C(F)(F)F)O[C@@H]4O[C@@]5(C)CC[C@H]6[C@H](C)CC[C@@H]3[C@@]46OO5)=C(C(F)(F)F)O[C@@H]3O[C@@]4(C)CC[C@@H]1[C@]32OO4 (some centres undefined),> 100 µM,> 100 µM
O=c1[nH]nc(-c2ccccc2)n1/N=C/c1cccnc1,> 100 µM,–
CCCOC(=O)N1CCN(/[N+]([O-])=N/Oc2ccc([N+](=O)[O-])cc2[N+](=O)[O-])CC1,16.3 µM,3.87 µM
O=C1c2ccccc2-c2c1c1ccccc1c(=O)n2CCN1CCOCC1,> 100 µM,> 100 µM
COc1ccc2nc3cc([N+](=O)[O-])ccc3c(Nc3ccc(S(=O)(=O)NC(C)=O)cc3)c2c1,> 100 µM,–
COc1ccc(C2N(NC(=O)c3ccncc3)C(=O)CS2(=O)=O)cc1F (centres undefined),> 100 µM,–
COc1ccccc1Cc1nc(-c2ccccc2)nn(C2OC(COC(C)=O)C(OC(C)=O)C(OC(C)=O)C2OC(C)=O)c1=S (centres undefined),> 100 µM,–
CC1=NN(c2nc(N)nc(/C(C#N)=C/c3cccn3-c3cc(Cl)cc(Cl)c3)n2)C(C)(C)C1,> 100 µM,–
COc1cc2c(cc1OC)C(Cl)C(c1ccc(Cl)c(Cl)c1)=C2Cl (centres undefined),86.5 µM,–
CC(=O)Nc1ccc(OC2=CCN(C)CC2)cc1,> 100 µM,–
C=C1C(=O)OC2C1C(OC(=O)/C(C)=C/C)CC(O)(CCl)C1C(O)C3OC3(C)C21O (centres undefined),> 50 µM,–
O=C(Nc1ccc(Cl)cc1)Nc1ccc(Nc2nncc3ccccc23)cc1,50.4 µM,5 µM
CC(=O)c1c(C(F)(F)F)n([O-])c2cc(Cl)c(Cl)cc2[n+]1=O,3.07 µM,–
Cn1cc(C2=C(c3cccc(OCC(O)CO)c3)C(=O)NC2=O)c2ccccc21 (centres undefined),> 25 µM,> 25 µM
Cc1cc(Cl)ccc1NC(=O)CC/C(CC(=O)C(C)C)=N\NC(=O)C[n+]1ccccc1,> 100 µM,–
C[Si](C)(C)c1ccc(-c2sc(-c3ccc([Si](C)(C)C)s3)c3c2C[Si]2(C3)Cc3c(-c4ccc([Si](C)(C)C)s4)sc(-c4ccc([Si](C)(C)C)s4)c3C2)s1,> 100 µM,–
COc1ccc(C2=NN(c3ccccc3)C[N+](c3ccc(OC)cc3)=N2)cc1,75.6 µM,–
CC#CC(=O)SCCNC(=O)CC,> 10 µM,–
COc1ccc(/C=C\c2cc(OC)c(OC)c(OC)c2)cc1OC,40.4 µM and > 100 µM,–
C(CCCCc1nnc(N2CCCCC2)o1)CCCc1nnc(N2CCCCC2)o1,> 100 µM,–
c1cn(C23C4C5C6C4C2C6C53)cn1 (centres undefined),> 100 µM,–
CN(C)c1ccc2nc3ccc(=[N+](C)C)cc-3sc2c1,15.2 µM and 7.76 µM,0.65 µM and 1.29 µM
